Experimental data as given in publication PMC6919601, “Identification of Plasmodium dipeptidyl aminopeptidase allosteric inhibitors by high throughput screening” (PLoS ONE, 2019).
Hit rate of the full screen: of about 110,000 compounds, about 230 (0.21%) showed an effect of 50% or more. Some of the results follow.

Molecular target: DPAP1 (Plasmodium falciparum, UniProt Q8IIJ9)
Assay: primary screen, percent inhibition; read by cleavage of a fluorogenic dipeptide substrate; higher = more effect of the substance
Design: species or system P. falciparum D10 trophozoite lysates; single well
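Note: 30 min substrate incubation versus DMSO and 10 µM JCP410 controls.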

Chain of DPAP1 (Q8IIJ9 whole entry, looked up): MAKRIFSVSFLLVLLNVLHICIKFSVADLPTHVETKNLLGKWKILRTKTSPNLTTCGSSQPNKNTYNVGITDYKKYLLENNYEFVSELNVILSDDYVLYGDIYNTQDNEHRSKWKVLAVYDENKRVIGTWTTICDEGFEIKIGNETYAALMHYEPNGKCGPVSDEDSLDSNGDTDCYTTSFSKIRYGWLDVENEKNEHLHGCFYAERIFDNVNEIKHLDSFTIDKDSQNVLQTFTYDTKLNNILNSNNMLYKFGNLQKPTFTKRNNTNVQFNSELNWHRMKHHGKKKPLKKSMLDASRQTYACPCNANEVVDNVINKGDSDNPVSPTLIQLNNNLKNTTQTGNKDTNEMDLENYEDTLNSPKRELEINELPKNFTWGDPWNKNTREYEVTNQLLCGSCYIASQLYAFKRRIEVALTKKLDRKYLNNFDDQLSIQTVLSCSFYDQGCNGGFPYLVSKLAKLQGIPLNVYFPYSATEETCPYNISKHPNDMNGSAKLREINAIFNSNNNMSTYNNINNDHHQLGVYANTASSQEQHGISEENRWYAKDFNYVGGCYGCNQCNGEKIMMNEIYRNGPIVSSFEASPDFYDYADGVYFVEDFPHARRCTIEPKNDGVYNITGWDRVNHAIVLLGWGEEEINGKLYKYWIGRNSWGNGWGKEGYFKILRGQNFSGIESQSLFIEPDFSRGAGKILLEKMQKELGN

Compound | % Inhibition @ 10 uM
CC1(C)CC(=O)c2c(nn(-c3ccccc3)c2-c2ccncc2)C1 | 1.05%
Cc1cc(C)c2oc(-c3cccc(NC(=O)c4cccc5ccccc45)c3)nc2c1 | 2.99%
Cc1n[nH]c2c1C(c1c(C)nn(-c3ccccc3)c1C)C(C#N)=C(N)O2 (stereo not drawn) | -7.27%
COc1cc(C2c3c(oc4ccc(C)cc4c3=O)C(=O)N2CCCN(C)C)ccc1OCCC(C)C (stereo not drawn) | -4.78%
CC1Cc2ccccc2N1C(=O)c1nn(C)cc1Br (stereo not drawn) | 2.65%
CC(c1ccccc1)n1c(NCCCn2ccnc2)nc2c1c(=O)[nH]c(=O)n2C (stereo not drawn) | -1.47%
CCN1CCC2(CC1)NC(=O)c1ccccc1O2 | -1.6%
COc1ccc(CN2CC(C(=O)NCCc3ccc(C)cc3)CC2=O)cc1 (stereo not drawn) | 3.79%
CC(=O)NC1(C(F)(F)F)NC(=O)N(C)C1=O (stereo not drawn) | -3.53%
Cc1ccccc1NC(=O)c1cccc(S(=O)(=O)Nc2cccc(C(=O)O)c2)c1 | 4.8%
CCCSc1nc(O)c(CC)c(=O)n1C(C)CC (stereo not drawn) | -3.26%
O=C(COc1ccccc1)NC1CCCCC1 | -10.6%
CC(=O)c1cccc(NC(=O)CCC2CCCC2)c1 | -5.6%
COc1cc(CNCC2CCCO2)ccc1OCc1ccccc1Cl (stereo not drawn) | 0.324%
O=C(O)c1ccc(-c2nc3cc(Cl)ccc3[nH]2)cc1 | 3.93%
O=C(O)c1cc(-c2ccccc2)nn1-c1ccccc1 | -8.51%
COc1cc(/C=C2\SC(=O)N(CC(=O)Nc3ccc(C)cc3)C2=O)cc(OC)c1OC | 7.17%
CSCCC(C(=O)Nc1cccc(C)c1)N1C(=O)c2ccccc2C1=O (stereo not drawn) | 7.23%
CCC(Oc1ccccc1)C(=O)NCc1ccccc1OC (stereo not drawn) | 0.161%
CCOc1ccccc1C1C(C#N)=C(N)Oc2c1c(C)nn2-c1ccc(C)cc1 (stereo not drawn) | -4.49%
COc1ccc(-c2ccc(CCC(=O)O)n2NC(N)=O)cc1 | -11%
O=C(c1cc(S(=O)(=O)NC2CCCC2)cs1)N1CCCC1 | -1.59%
CS(=O)(=O)Nc1nc2ccc(Cl)cc2s1 | 22.1%
O=C1NC(=O)N(c2cccc(Cl)c2)C(=O)/C1=C\Nc1cc(Cl)ccc1O | -2.54%
CCN1C(C(=O)c2ccccc2)=C(OC(=O)c2ccc(C)cc2)c2ccccc2S1(=O)=O | -1.22%
COCCCNC(=O)Cn1c(=O)n(CC(=O)NCCc2ccccc2)c(=O)c2sccc21 | 0.628%

Compound | % Inhibition @ 10 uM
COc1ccc(/C=C2/SC(=O)N(CC(=O)O)C2=O)cc1Br | 8.71%
CC(C)(C)c1ccc(OCCCN2CCCCC2)cc1 | 3%
Cc1ccc2c(CNCc3ccccc3C)c(C(=O)O)n(Cc3cccc(F)c3)c2c1 | -4.68%
Cc1cc(-c2nc(-c3ccc(-n4cccc4)cc3)no2)c2ccccc2n1 | 10.6%
Cc1ccccc1NC(=O)C1CCCN1S(=O)(=O)c1ccc(Cl)cc1 (stereo not drawn) | 3.26%
Cc1ccc2cc3cc(C(=O)NCc4ccco4)sc3nc2c1 | -0.984%
CC1CCCCC1NCc1ccc([N+](=O)[O-])cc1 (stereo not drawn) | 4.38%
O=C(CCC(=O)Nc1cccc(Cl)c1)Nc1cccc(Cl)c1 | 2.13%
COc1ccc(CNCc2ccc(OC)c3ccccc23)cc1 | -8.57%
COc1ccc(C2(C(=O)NC(C)CCc3ccccc3)CCOCC2)cc1 (stereo not drawn) | -0.718%
COc1ccc(N2C(C)=Nc3ccc(C)c4nc(C)cc2c34)cc1 | 8.05%
CCC1CCCCN1CCCNC(=O)c1ccc2c(Cl)c3c(nc2c1)CCC3 (stereo not drawn) | -7.65%
O=C(Cn1ncc2c1-c1ccccc1OC2)NCCCN1CCc2ccccc2C1 | -7.99%
Cc1cccc(NC(=O)COc2ccc(Cl)cc2)c1 | 3.24%
CCOc1cc(CN2CCN(S(=O)(=O)c3ccc(Cl)cc3)CC2)ccc1OC | -1.6%
Cc1nc2ccccc2n1CC(=O)NCCN1CCOCC1 | -3.33%
CSCCC(/N=C/C1=C(O)OC(C)(C)OC1=O)C(=O)O (stereo not drawn) | -3.28%
CCCCN(C)CCCNC(=O)c1sc2nc(C)cc(C)c2c1-n1cccc1 | 0.413%
CCNC(=O)NCc1nc(-c2ccc(Cl)cc2)no1 | 3.27%
COc1cccc(CN(C(=O)/C=C/c2ccc(Cl)cc2)C2CCS(=O)(=O)C2)c1 (stereo not drawn) | 0.155%
O=C(Nc1ccccc1[N+](=O)[O-])C1=C(O)CCn2c1nc1ccccc12 | 0.878%
Cc1nn(C)c(C)c1NC(=O)CCCC(=O)c1ccccc1 | 1.88%
C=CCOc1ccc(C2C(C(=O)OCC)=C(C)N=c3s/c(=C/c4ccco4)c(=O)n32)cc1OCC (stereo not drawn) | -4.74%
CCN(CC)C(C)(C)C#CC(O)(c1ccccc1)c1ccccc1 | -10.2%
CC(=O)Nc1ccccc1NC(=O)C(C)Oc1ccccc1 (stereo not drawn) | 1.62%
